Results taken from PubChem BioAssay AID360 (National Center for Advancing Translational Sciences (NCATS), 2006).
Hit rate of the full screen: of about 48,000 compounds, about 550 (1.1%) were called active. About 4% were inconclusive and are not listed. Rule as the data show it: active = potency below about 15 µM; inconclusive = mostly about 16 µM to 33 µM; inactive = weaker than that. Some of the results follow.

target: Lysosomal acid glucosylceramidase (Homo sapiens) (UniProt P04062); experiment: Glucocerebrosidase; details: purified enzyme, resorufin glucoside fluorescence (screen aimed at inhibitors), 20 min; series mostly up to 77 µM;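 also: the screen sought inhibitors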
Outline: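 Compounds titrated against 0.2 nM normal enzyme, 30 uM resorufin beta-D-glucopyranoside substrate, citrate/phosphate buffer with taurocholate and tween-20, pH 5.9. Reaction ran 20 min at room temperature; fluorescence (Ex 548/Em 600) gave AC50.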
Potency is read from the fitted curve at half-maximal effect.

Chain of UniProt P04062 (P04062 whole entry, looked up): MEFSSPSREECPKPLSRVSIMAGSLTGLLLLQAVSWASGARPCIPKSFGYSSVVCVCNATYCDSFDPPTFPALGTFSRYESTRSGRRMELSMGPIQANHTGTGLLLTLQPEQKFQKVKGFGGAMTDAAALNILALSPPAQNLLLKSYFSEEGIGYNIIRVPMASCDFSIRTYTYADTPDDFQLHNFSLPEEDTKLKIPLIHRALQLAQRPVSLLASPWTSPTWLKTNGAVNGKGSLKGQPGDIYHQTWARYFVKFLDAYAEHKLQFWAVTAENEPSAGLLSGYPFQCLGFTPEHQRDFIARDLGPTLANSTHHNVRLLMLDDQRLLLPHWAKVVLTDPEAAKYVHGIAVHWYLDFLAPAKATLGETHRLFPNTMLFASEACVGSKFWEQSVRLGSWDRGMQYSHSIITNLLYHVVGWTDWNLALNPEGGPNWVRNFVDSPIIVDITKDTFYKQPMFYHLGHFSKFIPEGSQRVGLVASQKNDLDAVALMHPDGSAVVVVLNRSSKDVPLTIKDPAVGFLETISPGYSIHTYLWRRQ

Potency, inactive:
CCOC(=O)CC(/C(C)=N\O)c1ccccc1 (centres undefined) > 76.9 µM
COC(=O)[C@H](C)NC(=O)Nc1ccc(OC)cc1OC > 76.9 µM
CC(=O)c1ccc(NC2OC(CO)C(O)C(O)C2O)cc1 (centres undefined) > 76.9 µM
O=C(c1ccco1)N1CCN(C(=O)c2cc(-c3ccccn3)nc3ccccc23)CC1 > 76.9 µM
O=C(CCN1C(=O)c2ccccc2C1=O)Nc1ccc(S(=O)(=O)N2CCOCC2)cc1 > 76.9 µM
Cc1[nH]nc2c1C(c1cn[nH]c1-c1ccc(F)cc1)C(C#N)=C(N)O2 (centres undefined) > 76.9 µM
C=CCN(CC(=O)NCc1ccc(OC)cc1)C(=O)c1csnn1 > 76.9 µM
CCN1CCN(c2ncnc3c2sc2nc(N4CCOCC4)c4c(c23)CCC4)CC1 > 76.9 µM
CN(C)S(=O)(=O)c1ccc(N2CCCC2)c(C(=O)Nc2ccccc2N2CCOCC2)c1 > 76.9 µM
COc1cc2c(cc1OC)-c1cc(NC3CC3)nc(=O)n1CC2 > 76.9 µM
Cc1ccc2[nH]c3c(=O)n(CCCN4CCN(C)CC4)cnc3c2c1 > 76.9 µM
c1cc(-c2nnc3n2CCCCC3)ccn1 > 76.9 µM
COCc1[nH]nc2c1C(C1C=CCCC1)C(C#N)=C(N)O2 (centres undefined) > 76.9 µM
CCC(C(=O)O)n1c(C(F)(F)F)nc2ccccc21 (centres undefined) > 76.9 µM
COC(=O)Nc1ccc(OCc2ccccc2)cc1 > 76.9 µM
CCn1c(NCc2ccc(N(C)C)cc2)nc2ccccc21 > 76.9 µM
COc1ccc(NC(C)=O)cc1NC(=O)CN1CCN(S(=O)(=O)c2ccc(C(C)C)cc2)CC1 > 76.9 µM
CC(C(=O)NCc1ccc2c(c1)OCO2)N1c2cccc3cccc(c23)S1(=O)=O (centres undefined) > 76.9 µM
CC(=O)Nc1ccc(S(=O)(=O)N2CCCN(S(=O)(=O)c3ccc(NC(C)=O)cc3)CC2)cc1 > 76.9 µM
O=C(O)c1cccnc1SCC(=O)N1CCCCCC1 > 76.9 µM
CCOC(=O)C(C)Sc1nc2c(c(=O)[nH]c(=O)n2C)n1C/C=C(/C)Cl (centres undefined) > 76.9 µM
CCCc1cc(=O)[nH]c(SCC(=O)c2cc(C)n(CCOC)c2C)n1 > 76.9 µM
Cc1cc(C(=O)COc2cccc(-n3cnnn3)c2)c(C)n1-c1ccccc1 > 76.9 µM
CC(=O)NC1(c2ccccc2)CCN(c2nc(C)cc(C)n2)CC1 > 76.9 µM
